Test results reported in patent publication US20250214977A1, “STAT6 INHIBITORS AND USES THEREOF” (Kymera Therapeutics, Inc., priority 2024, published 2025).

Target: T1, biotinylated truncated STAT6 (123-632)-avi (Homo sapiens, UniProt P42226)
T1 sequence (P42226 123-632 limits assumed): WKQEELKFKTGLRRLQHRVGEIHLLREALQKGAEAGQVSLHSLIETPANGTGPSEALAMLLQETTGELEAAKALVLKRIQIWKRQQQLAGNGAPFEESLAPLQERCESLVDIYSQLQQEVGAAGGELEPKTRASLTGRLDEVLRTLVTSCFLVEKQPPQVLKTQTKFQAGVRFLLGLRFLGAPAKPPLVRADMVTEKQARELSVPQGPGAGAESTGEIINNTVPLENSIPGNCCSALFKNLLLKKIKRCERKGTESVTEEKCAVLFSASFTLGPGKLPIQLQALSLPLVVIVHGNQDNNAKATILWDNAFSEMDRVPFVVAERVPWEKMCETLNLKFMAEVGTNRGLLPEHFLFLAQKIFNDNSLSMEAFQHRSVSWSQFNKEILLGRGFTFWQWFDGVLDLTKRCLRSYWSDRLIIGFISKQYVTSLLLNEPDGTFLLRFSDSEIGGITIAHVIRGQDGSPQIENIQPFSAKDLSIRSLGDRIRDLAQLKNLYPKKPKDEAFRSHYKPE
Assay: Homogenous Time-Resolved Fluorescence (HTRF) binding assay
Settings: 0.15 nM biotinylated truncated STAT6 (123-632)-avi, 20 nM fluorescein-labeled probe

| Compound | IC50 (30 minutes room temperature) [nM] | IC50 (30 minutes at room temperature) [nM] |
| --- | --- | --- |
| CCOc1cc(F)ccc1-c1cc2cc(C3=CCCN(C(=O)CCn4ccnn4)C3)ccc2o1 [Example I-1284] | 10000 to 100000 | – |
| CC(=O)N1CCC=C(c2cc(-c3cnn(-c4ccccc4)c3)c3cc(C(=O)N(C)C)[nH]c3c2F)C1 [Example I-1505] | 100 to 1000 | – |
| O=C(CCn1ccnn1)N1CCC=C(c2ccc3oc(C(=O)N4CCCC5CCCCC54)cc3c2)C1 (stereo not shown) [Example I-1604] | 1000 to 10000 | – |
| COc1ccccc1-c1cc(C2=CCCN(C(=O)CCn3ccnn3)C2)c(F)c2[nH]c(C(=O)N3CCN(c4cnn5c4CCC5)CC3)cc12 [Example I-1013] | – | < 100 |
| CN(C)C(=O)c1cc2ccc(C3=CCCN(C(=O)c4cnn(C)c4C(F)(F)F)C3)cc2[nH]1 [Example I-62] | – | 10000 to 100000 |
| COc1cc(F)cnc1N1CCN(C(=O)c2cc3c(-c4ccc(C)c5ncccc45)cc(C4=CCCN(C(=O)CCn5ccnn5)C4)c(F)c3[nH]2)CC1 [Example I-635] | – | < 100 |
| COc1ccccc1-c1cc(C2=CCCN(C(=O)CCn3ccnn3)C2)c(F)c2[nH]c(C(=O)N3CCN(c4ccc(C)cc4)CC3)cc12 [Example I-860] | – | 100 to 1000 |
| CN(C)C(=O)c1cc2cc(C3=CCCN(C(=O)CCn4ccnn4)C3)cc(NCc3ccc(F)cc3)c2o1 [Example I-872] | – | 100 to 1000 |
| COc1ccccc1-c1cc(C2=CCCN(C(=O)CCn3ccnn3)C2)c(F)c2[nH]c(C(=O)N3CCOc4ncccc43)cc12 [Example I-1391] | < 100 | – |
| CCc1nc(C)ccc1-c1cc(C(=O)N2CCN(c3nc(C)c(F)cc3OC)CC2)cc2cc(C3=CCCN(C(=O)CC(=O)O)C3)n(CC3CC3)c12 [Example I-792] | – | < 100 |
| CCn1ncc(CN(CCO)C(=O)c2cc3ccc(C4=CCCN(C(=O)CCn5ccnn5)C4)c(F)c3[nH]2)c1C [Example I-1636] | 100 to 1000 | – |
| COc1ccncc1-c1cc(C2=CCCN(C(=O)CCn3ccnn3)C2)c(F)c2[nH]c(C(=O)N3CCN(c4ccc(F)c(OC)n4)CC3)cc12 [Example I-444] | – | < 100 |
| CN(C)C(=O)c1cc2ccc(C3=CCCN(C(=O)C(CC4CC4)N4Cc5ccccc5C4=O)C3)cc2[nH]1 (stereo not shown) [Example I-104] | – | 10000 to 100000 |
| COc1ccncc1-c1cc(C2=CCCN(C(=O)CCn3ccnn3)C2)c(F)c2[nH]c(C(=O)N3CCN(C4CC4)CC3)cc12 [Example I-587] | – | < 100 |
| CN(C)C(=O)c1cc2ccc(C3=CCCC(C(=O)Nc4cccc(C(N)=O)c4)C3)c(F)c2[nH]1 (stereo not shown) [Example I-1252] | 10000 to 100000 | – |
| CN(C)C(=O)c1cc2ccc(C3=CCCN(C(=O)c4cc5occc5n4-c4ccccc4)C3)cc2[nH]1 [Example I-102] | – | 10000 to 100000 |
| CN(C)C(=O)c1cc2cc(C3=CCCN(C(=O)CCn4ccc5ccccc54)C3)ccc2o1 [Example I-264] | – | 10000 to 100000 |
| COc1ccccc1-c1cc(C2=CCCN(C(=O)CCn3ccnn3)C2)c(F)c2[nH]c(C(=O)N3CCN(c4ccccc4)CC3)cc12 [Example I-419] | – | < 100 |
| CN(C)C(=O)c1cc2cc(C3CCCN(C(=O)CCn4ccnn4)C3)ccc2o1 (stereo not shown) [Example I-305] | – | 1000 to 10000 |
| COc1cccnc1N1CCN(C(=O)c2cc3c(-c4cc(C#N)ccn4)cc(C4=CCCN(C(=O)CCn5ccnn5)C4)c(F)c3[nH]2)CC1 [Example I-581] | – | < 100 |
| CCOC(=O)c1cc2ccc(N3CCN(C(=O)c4cc5c(-c6ccccc6OC)cc(C6=CCCN(C(=O)CCn7ccnn7)C6)c(F)c5[nH]4)CC3)cn2c1 [Example I-903] | – | 100 to 1000 |
| COc1ccccc1-c1cc(C2=CCCN(C(=O)CCn3ccnn3)C2)c(F)c2[nH]c(C(=O)N3CCN(c4nc5ccccc5nc4C)CC3)cc12 [Example I-339] | – | < 100 |
| COc1ccccc1-c1cc(C2=CCCN(C(=O)CCn3ccnn3)C2)c(F)c2[nH]c(C(=O)N3CCc4nc(C)[nH]c4C3)cc12 [Example I-1552] | < 100 | – |
| COc1ccccc1-c1cc(C2=CCCN(C(=O)CCn3ccnn3)C2)c(F)c2[nH]c(C(=O)N3CCN(c4nc5ccccc5c5ccccc45)CC3)cc12 [Example I-916] | – | 100 to 1000 |
| COc1ccccc1-c1cc(C2=CCCN(C(=O)CCn3ccnn3)C2)c(F)c2[nH]c(C(=O)N3CCN(c4ccc5c(c4)c4ccccc4n5C)CC3)cc12 [Example I-770] | – | 1000 to 10000 |
